Measured values published in the supplement of paper PMC4967469.

Each cell line was assayed with NC(=O)[C@@H](CCC(F)(F)F)N(Cc1ccc(-c2ncon2)cc1F)S(=O)(=O)c1ccc(Cl)cc1 [BMS-708163] (assay: Viability of human cancer cell lines after 72 h of drug (GDSC screen)). Conditions: screen: GDSC drug entry 205; top dose inferred.
Description: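 Human cancer cell lines in 384-well plates, medium with 10% serum, drug for 72 h over a 256-fold dose range (nine 2-fold or five 4-fold steps up to the top dose). Adherent lines were fixed and stained with the nucleic acid dye Syto60, suspension lines read with resazurin; signal relative to control wells, capped at 0 and 100%. One two-parameter sigmoid per drug and line, fitted in a mixed model over all curves with the slope shared within a line.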

Row | Cell Line | AUC | IC50
1 | LU-134-A (small cell lung carcinoma, suspension, top dose 10.24 µM) | 0.984 | > 10.2 µM
2 | MEL-JUSO (melanoma, adherent, top dose 10.24 µM) | 0.978 | > 10.2 µM
3 | A2780 (ovary, semi-adherent, top dose 10.24 µM) | 0.968 | > 10.2 µM
4 | EW-16 (Ewing sarcoma, adherent, top dose 10.24 µM) | 0.976 | > 10.2 µM
5 | K5 (thyroid, adherent, top dose 10.24 µM) | 0.987 | > 10.2 µM
6 | P30-OHK (lymphoblastic leukaemia, suspension, top dose 10.24 µM) | 0.893 | 8.62 µM
7 | CAL-54 (kidney, adherent, top dose 10.24 µM) | 0.985 | > 10.2 µM
8 | NCI-H196 (small cell lung carcinoma, adherent, top dose 10.24 µM) | 0.987 | > 10.2 µM
9 | CA46 (Burkitt lymphoma, suspension, top dose 10.24 µM) | 0.983 | > 10.2 µM
10 | LN-18 (glioma, adherent, top dose 10.24 µM) | 0.994 | > 10.2 µM
11 | NCI-H1944 (lung adenocarcinoma, adherent, top dose 10.24 µM) | 0.983 | > 10.2 µM
12 | EMC-BAC-2 (lung adenocarcinoma, adherent, top dose 10.24 µM) | 0.982 | > 10.2 µM
13 | RERF-GC-1B (stomach, adherent, top dose 10.24 µM) | 0.981 | > 10.2 µM
14 | JURL-MK1 (chronic myeloid leukaemia, suspension, top dose 10.24 µM) | 0.986 | > 10.2 µM
15 | OV-56 (ovary, adherent, top dose 10.24 µM) | 0.987 | > 10.2 µM
16 | HuP-T4 (pancreas, adherent, top dose 10.24 µM) | 0.965 | > 10.2 µM
17 | NCI-H28 (mesothelioma, adherent, top dose 10.24 µM) | 0.979 | > 10.2 µM
18 | ME-180 (cervix, adherent, top dose 10.24 µM) | 0.98 | > 10.2 µM
19 | SW156 (kidney, adherent, top dose 10.24 µM) | 0.974 | > 10.2 µM
20 | GI-ME-N (neuroblastoma, adherent, top dose 10.24 µM) | 0.968 | > 10.2 µM
21 | NCI-H2405 (lung adenocarcinoma, adherent, top dose 10.24 µM) | 0.985 | > 10.2 µM
22 | GP5d (large intestine, adherent, top dose 10.24 µM) | 0.986 | > 10.2 µM
23 | TE-12 (oesophagus, suspension, top dose 10.24 µM) | 0.961 | > 10.2 µM
24 | ES6 (Ewing sarcoma, adherent, top dose 10.24 µM) | 0.977 | > 10.2 µM

Row | Cell Line | AUC | IC50
25 | SF126 (glioma, adherent, top dose 10.24 µM) | 0.986 | > 10.2 µM
26 | JM1 (B-cell lymphoma, suspension, top dose 10.24 µM) | 0.991 | > 10.2 µM
27 | 786-0 (kidney, adherent, top dose 10.24 µM) | 0.982 | > 10.2 µM
28 | PANC-02-03 (pancreas, adherent, top dose 10.24 µM) | 0.983 | > 10.2 µM
29 | CHP-212 (neuroblastoma, adherent, top dose 10.24 µM) | 0.979 | > 10.2 µM
30 | LS-180 (large intestine, adherent, top dose 10.24 µM) | 0.971 | > 10.2 µM
31 | COLO-205 (large intestine, suspension, top dose 10.24 µM) | 0.988 | > 10.2 µM
32 | MZ2-MEL (melanoma, adherent, top dose 10.24 µM) | 0.96 | > 10.2 µM
33 | GR-ST (lymphoblastic leukaemia, suspension, top dose 10.24 µM) | 0.981 | > 10.2 µM
34 | 8305C (thyroid, adherent, top dose 10.24 µM) | 0.976 | > 10.2 µM
35 | EM-2 (chronic myeloid leukaemia, suspension, top dose 10.24 µM) | 0.982 | > 10.2 µM
36 | TUR (B-cell lymphoma, suspension, top dose 10.24 µM) | 0.988 | > 10.2 µM
37 | HGC-27 (stomach, adherent, top dose 10.24 µM) | 0.99 | > 10.2 µM
38 | NMC-G1 (glioma, adherent, top dose 10.24 µM) | 0.898 | > 10.2 µM
39 | RH-1 (rhabdomyosarcoma, adherent, top dose 10.24 µM) | 0.992 | > 10.2 µM
40 | Detroit562 (head and neck, adherent, top dose 10.24 µM) | 0.988 | > 10.2 µM
41 | RKN (ovary, adherent, top dose 10.24 µM) | 0.981 | > 10.2 µM
42 | LU-165 (small cell lung carcinoma, suspension, top dose 10.24 µM) | 0.988 | > 10.2 µM
43 | EN (endometrium, adherent, top dose 10.24 µM) | 0.983 | > 10.2 µM
44 | PSN1 (pancreas, adherent, top dose 10.24 µM) | 0.991 | > 10.2 µM
45 | IA-LM (large cell lung carcinoma, adherent, top dose 10.24 µM) | 0.985 | > 10.2 µM
46 | RXF393 (kidney, adherent, top dose 10.24 µM) | 0.973 | > 10.2 µM
47 | KMH-2 (thyroid, adherent, top dose 10.24 µM) | 0.974 | > 10.2 µM
48 | LB373-MEL-D (melanoma, adherent, top dose 10.24 µM) | 0.99 | > 10.2 µM

Row | Cell Line | AUC | IC50
49 | NCI-H1703 (lung adenocarcinoma, adherent, top dose 10.24 µM) | 0.981 | > 10.2 µM
50 | SUP-M2 (anaplastic large cell lymphoma, suspension, top dose 10.24 µM) | 0.989 | > 10.2 µM
51 | A2058 (melanoma, adherent, top dose 10.24 µM) | 0.99 | > 10.2 µM
52 | SAS (head and neck, adherent, top dose 10.24 µM) | 0.982 | > 10.2 µM
53 | RPMI-2650 (head and neck, adherent, top dose 10.24 µM) | 0.946 | > 10.2 µM
54 | SR (lymphoid neoplasm, suspension, top dose 10.24 µM) | 0.979 | > 10.2 µM
55 | NAMALWA (Burkitt lymphoma, suspension, top dose 10.24 µM) | 0.983 | > 10.2 µM
56 | CAL-39 (cervix, adherent, top dose 10.24 µM) | 0.986 | > 10.2 µM
57 | NCI-H810 (large cell lung carcinoma, adherent, top dose 10.24 µM) | 0.985 | > 10.2 µM
58 | LS-1034 (large intestine, adherent, top dose 10.24 µM) | 0.973 | > 10.2 µM
59 | PCI-38 (head and neck, adherent, top dose 10.24 µM) | 0.985 | > 10.2 µM
60 | NCI-H2172 (non-small cell lung carcinoma, adherent, top dose 10.24 µM) | 0.983 | > 10.2 µM
61 | HL-60 (acute myeloid leukaemia, suspension, top dose 10.24 µM) | 0.969 | > 10.2 µM
62 | QIMR-WIL (acute myeloid leukaemia, suspension, top dose 10.24 µM) | 0.987 | > 10.2 µM
63 | TCCSUP (bladder, adherent, top dose 10.24 µM) | 0.985 | > 10.2 µM
64 | NCI-H2110 (non-small cell lung carcinoma, adherent, top dose 10.24 µM) | 0.985 | > 10.2 µM
65 | ESO26 (oesophagus, adherent, top dose 10.24 µM) | 0.987 | > 10.2 µM
66 | GDM-1 (acute myeloid leukaemia, suspension, top dose 10.24 µM) | 0.985 | > 10.2 µM
67 | HH (T-cell leukaemia, suspension, top dose 10.24 µM) | 0.953 | > 10.2 µM
68 | SiHa (cervix, adherent, top dose 10.24 µM) | 0.986 | > 10.2 µM
69 | no-11 (glioma, adherent, top dose 10.24 µM) | 0.981 | > 10.2 µM
70 | TOV-112D (ovary, adherent, top dose 10.24 µM) | 0.985 | > 10.2 µM

Same assay, conditions: top dose 5 µM; screen: GDSC drug entry 1072; top dose inferred

Row | Cell Line | AUC | IC50
71 | A549 (lung adenocarcinoma, adherent) | 0.949 | > 5 µM
72 | BALL-1 (B-cell leukaemia, suspension) | 0.997 | > 5 µM
73 | OVCA433 (ovary, adherent) | 0.92 | > 5 µM
74 | KNS-62 (lung squamous cell carcinoma, adherent) | 0.979 | > 5 µM
75 | ESO26 (oesophagus, adherent) | 0.976 | > 5 µM
76 | OVK-18 (ovary, adherent) | 0.986 | > 5 µM
77 | NCI-H508 (large intestine, semi-adherent) | 0.926 | > 5 µM
78 | MKN7 (stomach, adherent) | 0.963 | > 5 µM
79 | NCI-N87 (stomach, adherent) | 0.979 | > 5 µM

By IC50 is meant the dose at which the fit gives 50% viability; fits outside the tested doses are given as limits. The AUC spans the tested range (256-fold, ending at the top dose) of the same fit; it is 1 without any effect and falls as sensitivity rises. Where the top dose is marked as inferred, it comes from the curve model; the source does not state it. An entry number marks a drug with two screens in the source, which often give different values.
